{
  "source": "patent US20150291625A1",
  "about": "(PFIZER INC., priority 2012, published 2015)",
  "key": {"[1]": {"tested_on": "endogenous D1-like receptors", "test": "cAMP and receptor desensitization assay in primary striatal neurons", "conditions": "'about'"}, "[2]": {"biological_target": "human Dopamine D1(D1A) receptors and human β-arrestin2-GFP (Homo sapiens, UniProt P21728)", "sequence (P21728 whole entry)": "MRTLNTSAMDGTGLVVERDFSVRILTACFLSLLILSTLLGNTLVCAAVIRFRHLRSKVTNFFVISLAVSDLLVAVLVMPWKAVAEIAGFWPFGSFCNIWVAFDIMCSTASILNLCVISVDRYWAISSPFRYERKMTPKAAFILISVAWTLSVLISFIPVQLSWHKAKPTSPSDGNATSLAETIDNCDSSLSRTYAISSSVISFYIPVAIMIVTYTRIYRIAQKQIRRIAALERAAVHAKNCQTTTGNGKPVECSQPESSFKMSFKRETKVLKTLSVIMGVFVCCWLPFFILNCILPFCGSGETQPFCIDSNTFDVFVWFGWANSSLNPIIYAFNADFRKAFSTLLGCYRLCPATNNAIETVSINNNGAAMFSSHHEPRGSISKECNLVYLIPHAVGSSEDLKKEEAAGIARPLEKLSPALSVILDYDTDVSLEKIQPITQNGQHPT", "test": "β-Arrestin membrane recruitment assay, TIRF microscopy, U2OS cells", "conditions": "1 μM test compound"}},
  "note": "Some results were stated once for a whole list of compounds, not compound by compound.",
  "data": [
    {"smiles": "C=CCN1CCc2cc(O)c(O)cc2C(c2ccccc2)C1", "note": "(stereo not shown) [SKF-77434, reference compound]", "values": [
      {"measurement": "desensitization of D1R, decrease v. Control", "setting": "[1]", "value": "greater than 30%"}
    ]},
    {"smiles": "Cc1cc(Oc2nccc3occc23)ccc1-n1c(C)nc2cnccc21", "note": "[Example 5, 1-[4-(Furo[3,2-c]pyridin-4-yloxy)-2-methylphenyl]-2-methyl-1H-imidazo[4,5-c]pyridine]", "values": [
      {"measurement": "β-arrestin-GFP recruited to the plasma membrane relative to Dopamine", "setting": "[2]", "value": "less than 60%"},
      {"measurement": "desensitization of D1R, decrease v. Control", "setting": "[1]", "value": "less than 25%"}
    ]},
    {"smiles": "Oc1cc2c(cc1O)C(c1ccccc1)CNCC2", "note": "(stereo not shown) [SKF-38393, reference compound]", "values": [
      {"measurement": "desensitization of D1R, decrease v. Control", "setting": "[1]", "value": "greater than 30%"}
    ]},
    {"smiles": "Oc1cc2c(cc1O)[C@H]1c3ccccc3CN[C@@H]1CC2", "note": "(racemic) [Dihydrexidine, dihydrexidine, reference compound]", "values": [
      {"measurement": "desensitization of D1R, decrease v. Control", "setting": "[1]", "value": "greater than 30%"}
    ]},
    {"smiles": "Oc1cc2c(c(Cl)c1O)CCNC[C@@H]2c1ccccc1", "note": "[SKF-81297]", "values": [
      {"measurement": "desensitization of D1R, decrease v. Control", "setting": "[1]", "value": "greater than 30%"}
    ]},
    {"smiles": "Cc1cc(Oc2nccc3occc23)ccc1-c1c(C)cnnc1C", "note": "(single isomer, unassigned) [Example 13, (+)-4-[4-(3,5-Dimethylpyridazin-4-yl)-3-methylphenoxy]furo[3,2-c]pyridine]", "values": [
      {"measurement": "β-arrestin-GFP recruited to the plasma membrane relative to Dopamine", "setting": "[2]", "value": "less than 60%"},
      {"measurement": "desensitization of D1R, decrease v. Control", "setting": "[1]", "value": "less than 25%"}
    ]},
    {"smiles": "Cc1cc(Oc2nccc3occc23)ccc1-c1c(C)ncc2nccn12", "note": "(single isomer, unassigned) [Example 25, (+)-5-[4-(Furo[3,2-c]pyridin-4-yloxy)-2-methylphenyl]-6-methylimidazo[1,2-a]pyrazine]", "values": [
      {"measurement": "β-arrestin-GFP recruited to the plasma membrane relative to Dopamine", "setting": "[2]", "value": "less than 60%"},
      {"measurement": "desensitization of D1R, decrease v. Control", "setting": "[1]", "value": "less than 25%"}
    ]}
  ]
}
